In the RNAGym collection of RNA variant scans (doi:10.7554/elife.90254):
Read counts are not given, so values of variants with three or more changes are uncertain.

B1: LINE1-mini (parent)
chain: GGCAGAGCUCAACACAGCGUGGCAAAGUGGCUGUGGCUAGACUGCC

Variants of: B1
Assay: self-cleavage, relative activity (ratio to wild type); higher = more cleavage; in vitro, sequencing; the parent is a self-cleaving ribozyme

Variant	self-cleavage
U38G C42A U43G C45A	0.01
C37G U38C A39U	0.01
C37U A39G G44U	0.02
U34C G35C U38C C42G	0
U34G C37A U43A	0.09
C31A G35U C45G	0.05
U34A G36C A39U	0.01
G36U C42U G44A	0.02
G35A U38G A39U	0.03
A39U G44A C46A	0
U34A C42U C46A	0.02
C31G U32G A39C	0.05
G36A U43C C46G	0.21
G35U C42G C45A	0.05
G35A A39U U43C	0.07
C31G C37G C45U	0
C31G C37G C45A	0.01
C37G A39C G44C	0.06
C37G A39C G44U	0.04
G33C A39U C46U	0.04
G35C G36U C37A	0.11
C31A G33U G44A	0.02
G35C A39U C46U	0.05
U38G G40U G44A	0.03

Variant	self-cleavage
G36A A41C C45U	0
G36U U38C G44C	0.06
U38C C42G U43C	0.11
U32A A41G C45U	0
G35A A41C C46A	0.04
G33A G36U A39G	0.02
C31U G44A C45G	0.04
U32A G33C C45A	0.02
U34A C37G A39C	0.02
U34A C37G A39G	0.08
U34A C37G A39U	0.01
C31U G36U C37U	0.04
G33A G35A C42A	0.1
C31A G35C U38C A41C	0.01
G36A A39C C46G	0.4
G36A G40A C42G	0.67
G33C U34A G35U	0.02
G33C G35A C46U	0.02
G33C G35C U43C	0.04
C31A G40A C45A	0.1
C31U C37U G44U	0.01
U32A G36U U38C	0.04
C31U G44A C46A	0.01
C37A G40A C46U	0.19

Variant	self-cleavage
G35U C37G C46G	0
U32G G40U C45A	0.02
C31A G36C C37U U38C	0.04
G33A G35A A39U G40U	0.08
A39G G40A G44C	0.04
G35C G40A C42A U43G	0.12
C37U C42A C46G	0.06
G35C A39G C45G	0.04
U32C G33A U38A A39G	0.04
C31A U32A C37A	0.08
U32C C42G C45A	0.09
U32A U38C G44U	0.05
G33A G35U C46A	0
G36A G40C A41U	0.41
G35A A41C U43G	0.02
G35U G44U C46U	0.4
U32A U34C A41U	0.02
C37G U43A G44A	0.22
U38A C42U C45U	0.15
G35C A39C G44A	0.02
U38G C42U C45A	0.03
G35C C42G G44U	0.01
C31A G40U C46A	0.01
G35C U43C G44U	0

Variant	self-cleavage
U32G C37A C42U C45A	0.05
C31U G36A C42U G44U	0.05
G33A G36C A41G	0.01
U32G A39U G40C U43C G44C	0.05
U32A C37A C46A	0.03
U32A U34A U38A	0.02
C31G G36U U38C C45U	0.07
C31G U34G U43G	0.02
G33C U34A U38G	0.03
G33C U34A U38C	0.19
G33U C42A U43A C46A	0
C31G U32C U34A C45U	0.04
G36A A41U U43G	0.09
U34C G35C C45A C46A	0.03
G35U G36A G44A	0.09
G33U G35U C37A	0.04
G33A A39C G44U	0.01
U38A A39U C46A	0.15
U38A G40C A41G	0.11
G36A G40A A41C C45U	0.11
G33A U34C C45U	0.05
U32G G36U G40A	0
U32G G36U G40U	0.03
U34A A39U C45G	0.05

Variant	self-cleavage
G35A A39G G40U	0.03
C37G A39U G44U	0.08
U32G U34G C37G	0.02
C31U U32G G36U C46A	0.02
A39U U43A G44A	0.09
G36A G40U A41C	1.03
C31U C37G A41U	0.04
G33C G35U G36C C37G	0.04
U32G C37U C45G	0.07
A39G U43A G44A	0.05
G35A C37U C42A	0.01
G36C G40U U43A	0.09
G33U G40U A41U C42A	0.06
C31U U32C C46U	0.03
U34C G36A C42U	0.16
U32C C37U U38C	0.08
G35U U38A G44C C45G	0.05
U32A G33U G40U	0
G36A C37A G40C	0.14
G36C U43A C46A	0.03
U34A G36A A41C C45U	0
G36U A41U G44U	0.02
C31U C37G U38A C42G	0.01
U34C C37G G40U	0.16

Variant	self-cleavage
G33U C42A C45G	0.24
G36C C37A U38C	0.1
C37U U38A U43A G44A	0.03
U32G A39C A41G	0.06
C31U G44U C45U C46G	0.03
U34A G36U A39G U43A	0.15
U34G A41G C45A	0
G35A G36A G40U	0.11
G33C G35U U38A	0.04
C31G U34G A39C	0.04
A39G G44A C46A	0.26
G35C C37G C42G	0.03
A39G G40C C42U	0
G36C U43G G44U	0.06
A39C G44A C45U	0.04
G33A U38A C42G	0.04
G35U G36C G44A	0.07
G35C G36U C46A	0.04
C31U G36A A41U	0.04
C37G G40A G44U	0
G35C A41G C46A	0.07
C31G G36U C37A	0.14
G33C G36U A41C	0
U34C G40C C42G C45G	0.11

Variant	self-cleavage
A39C A41G G44A	0.1
C31U C37G U43C	0.2
C31G C42U C46U	0.01
U32A G35C A41G	0.04
U38A C42U U43C	0.09
U32G G33C G40C	0.07
G33A A41C C42A	0.02
C37U U38G C46A	0.04
U32A G33U U38A	0.12
C31A U34C C37A	0.23
G33C G36A A39C	0.03
C31G G35U U43A	0.03
G35C C37G C46U	0.04
G33C C42A G44U	0.02
G36C C45U C46A	0.22
C31G G35A C37G	0.04
G33U U34C C42U	0.07
G36U U38G A39U	0
U32C U34A G36A	0.04
G33U C37A C45G	0.04
U32C U34G G36A G40U U43A	0.01
C31A U38A G40A	0.06
C31U A39C G40A U43G	0.03
